# Measurements taken from publication PMC4336329 (PLoS ONE, 2015).
# In all, about 310,000 compounds went through this assay and about 14,000 (4.5%) showed an effect of 50% or more. The effect is printed as a negative number. The list shows a part of the results. Where a SMILES comes first, the peptide text is derived from it. The star is where a group is joined. Boc = CC(C)(C)OC(=O)*
# Molecular target: human ether-à-go-go-related gene (hERG) potassium channel (human, UniProt Q12809)
# Assay: primary screen, population patch clamp on CHO cells stably expressing hERG
# 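Further: peak tail current of the secondary pulse compared with the same well before compound.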
# Sequence of human ether-à-go-go-related gene (hERG) potassium channel (Q12809 whole entry, looked up): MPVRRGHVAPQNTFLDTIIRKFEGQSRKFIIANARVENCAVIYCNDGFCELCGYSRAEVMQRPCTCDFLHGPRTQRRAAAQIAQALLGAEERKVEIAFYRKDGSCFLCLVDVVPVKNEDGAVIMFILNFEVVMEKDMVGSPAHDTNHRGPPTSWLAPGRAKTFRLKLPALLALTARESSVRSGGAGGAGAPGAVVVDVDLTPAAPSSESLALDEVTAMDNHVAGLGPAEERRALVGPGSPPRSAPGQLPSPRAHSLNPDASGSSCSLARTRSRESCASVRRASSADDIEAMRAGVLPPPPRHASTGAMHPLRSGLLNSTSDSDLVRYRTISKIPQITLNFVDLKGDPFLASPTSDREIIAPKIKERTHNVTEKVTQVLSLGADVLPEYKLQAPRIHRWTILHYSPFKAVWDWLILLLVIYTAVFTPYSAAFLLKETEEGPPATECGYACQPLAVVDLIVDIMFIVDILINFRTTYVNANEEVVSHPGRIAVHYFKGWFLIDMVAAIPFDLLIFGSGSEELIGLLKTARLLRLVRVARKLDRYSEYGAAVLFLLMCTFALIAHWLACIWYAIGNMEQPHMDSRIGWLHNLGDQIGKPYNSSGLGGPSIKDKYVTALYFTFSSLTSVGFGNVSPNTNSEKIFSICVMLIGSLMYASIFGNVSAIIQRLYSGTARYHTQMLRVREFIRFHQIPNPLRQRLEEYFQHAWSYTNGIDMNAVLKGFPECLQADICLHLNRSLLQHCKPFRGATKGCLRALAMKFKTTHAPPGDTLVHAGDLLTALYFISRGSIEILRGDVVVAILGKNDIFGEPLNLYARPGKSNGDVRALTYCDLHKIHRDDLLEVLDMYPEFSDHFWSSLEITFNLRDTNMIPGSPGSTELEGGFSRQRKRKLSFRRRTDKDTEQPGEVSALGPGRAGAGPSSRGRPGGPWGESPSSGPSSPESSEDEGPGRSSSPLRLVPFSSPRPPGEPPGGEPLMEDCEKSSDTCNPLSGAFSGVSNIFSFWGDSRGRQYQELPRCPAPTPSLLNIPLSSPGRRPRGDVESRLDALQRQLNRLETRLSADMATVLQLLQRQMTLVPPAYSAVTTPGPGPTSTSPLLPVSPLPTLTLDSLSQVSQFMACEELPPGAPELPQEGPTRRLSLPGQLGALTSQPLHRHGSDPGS
row,SMILES,"hERG current change (%, negative = inhibition) at 10uM [%]"
1,O=C(NCCCN1CCOCC1)c1ccc(S(=O)(=O)Nc2ccccc2)cc1,28.5
2,CN1/C(=C\C(=O)COC(=O)c2ccc(O)cc2)C(C)(C)c2ccccc21,9.75
3,COc1cccc(-n2c(CN3CCN(c4ccccn4)CC3)nc3ccc([N+](=O)[O-])cc3c2=O)c1,-40
4,CCn1c(SCC(=O)NC2CC2)nnc1-c1ccc(OC)cc1,17.4
5,Cc1cc(NS(=O)(=O)c2ccc(NC(=O)Cc3ccc([N+](=O)[O-])cc3)cc2)no1,17.7
6,CN(Cc1ccccc1)Cc1nc2c(c(=O)n(C)c(=O)n2C)n1CCc1ccccc1,-48.3
7,Cc1cccc(NC(=O)CNC(=O)CN2C(=O)NC3(CCCCC3C)C2=O)c1C (stereo not shown),28.7
8,COc1ccc(S(=O)(=O)NCc2ccc(C(=O)N3CCN(c4ccccn4)CC3)cc2)cc1,-13.7
9,Nc1nnc(SCC(=O)NN2C(=O)NC3(CCCCC3)C2=O)s1,8.44
10,CN1CCC(O)(c2ccccc2)C2CCCC21 (stereo not shown),1.25
11,COc1ccc(NC(=O)Cn2nnc(C(=O)NCc3cccs3)c2N)c(OC)c1,8.52
12,COc1ccccc1N1CCN(C(=O)c2cccc(S(=O)(=O)N3CCCCCC3)c2)CC1,-77
13,O=C(Nc1ccnn1C1CCN(C(=O)Cc2ccccc2F)CC1)C1CC1,10.1
14,CC(C)C(=O)N(Cc1cc2ccccc2[nH]c1=O)C(C)C,-20.8
15,CC1CC(C)CN(C(=O)c2cc(-c3ccncc3)nc3ccccc23)C1 (stereo not shown),-35.5
16,Cc1ccc(Cl)cc1N1C(=O)CC(Sc2ncccn2)C1=O (stereo not shown),11.3
17,CC(C)c1ccc(S(=O)(=O)N2CCN(C(C)C(=O)N3CCCC3)CC2)cc1 (stereo not shown),-11.8
18,O=C(c1ccco1)N(Cc1cc2ccccc2[nH]c1=O)C1CCCCC1,0.833
19,COC(=O)c1cccc(N(CC(=O)NC2CCCCC2)C(=O)CNC(=O)c2cccs2)c1,-0.681
20,O=C(O)C1(NS(=O)(=O)c2ccc(F)c(Cl)c2)CCCCC1,7.65
21,COc1cc(/C=N/NC(=O)C(N)=O)ccc1OCC(=O)N1C(C)CCCC1C (stereo not shown),1.75
22,Cc1nn(-c2ccccc2)c2c1C(O)n1c(nc3ccccc31)S2 (stereo not shown),-2.39

row,SMILES,"hERG current change (%, negative = inhibition) at 10uM [%]"
1,Nc1nc(NC(=O)CCCC(=O)O)nn1-c1ccccc1,9.02
2,CC(C)CCNC(=O)CNC(=O)c1cccs1,6.48
3,COc1cccc(C(=O)NCCCNC(=O)c2cccc(OC)c2)c1,1.43
4,N=c1c(C(=O)NCC2CCCO2)cc2c(=O)n3ccccc3nc2n1Cc1ccc(Cl)cc1 (stereo not shown),-77.2
5,O=C(Nc1cccc(-c2csc(Nc3ccc(Cl)cc3)n2)c1)c1ccccc1,19.1
6,COc1ccccc1-c1nc(SCC(=O)N2CCC(C(N)=O)CC2)n[nH]1,8.48
7,COc1ccc(CN(CCO)CCO)cc1[N+](=O)[O-].Cl,3.54
8,O=C1CN(S(=O)(=O)c2cc(C(F)(F)F)ccc2Cl)CCN1,-6.29
9,COc1cc(/C=N/NC(=O)c2ccoc2C)ccc1O,-3.54
10,CN(C)C(CNC(=O)c1ccc(NS(=O)(=O)c2cccc([N+](=O)[O-])c2)cc1)c1ccco1 (stereo not shown),12.4
11,COc1cc(O)cc2c1C(=O)O[C@@H](C)CCCC(=O)CCCCC2,0.125
12,CCN(CC)C(=O)Cn1cnc([N+](=O)[O-])n1,12.1
13,NC(=O)Nc1ccc(Nc2ccccc2)cc1,-15.3
14,FC(F)(F)c1ccccc1/C=N/n1c(C2CCCCC2)n[nH]c1=S,22.4
15,CCOc1cc(/C=N/n2nnnc2N)ccc1OCc1c(C)no[n+]1[O-],5.43
16,CC1(C)CC(=O)C=C(Nc2cc(-c3ccccc3)[nH]n2)C1,-11.2
17,N#CCCn1cc(C(=O)Nc2ccccc2Br)c(-c2cccs2)n1,-22.8
18,COc1cc(OC)cc(-n2nc(C(=O)N3CC(C)CC(C)C3)c3ccccc3c2=O)c1 (stereo not shown),-43.3
19,CC(C)c1cc(C(=O)O)on1,-3.21
20,O=c1[nH]c2cc(Cl)c([N+](=O)[O-])nc2[nH]1,1.62
21,COc1cccc(Nc2nc(-c3sc(NC(=O)c4ccccc4)nc3C)cs2)c1,21
22,COc1ccccc1NC(=O)C(C)NS(=O)(=O)c1ccc(Cl)cc1 (stereo not shown),-0.716

row,SMILES,"hERG current change (%, negative = inhibition) at 10uM [%]"
1,CCc1nccn1S(=O)(=O)c1ccc2ccccc2c1,9.38
2,COc1ccc(NC(=O)c2cc(-c3ccco3)nc3ccccc23)cn1,2.31
3,CC1CCc2ccc(F)cc2N1S(=O)(=O)c1cccs1 (stereo not shown),2.36
4,Cc1oc2cc([N+](=O)[O-])c(O)c([N+](=O)[O-])c2c1C(=O)c1ccc(Br)cc1,28.3
5,Cc1cccc(CCN(Cc2cc3cccc(C)c3[nH]c2=O)C(=O)N2CCOCC2)c1,-29.4
6,CCC(=O)c1cn(CC(=O)Nc2c(C)cccc2C)c2ccccc12,19.2
7,COc1cc(OC)cc(C(=O)Nn2cnnc2)c1,10.2
8,CC1CCN(S(=O)(=O)c2ccc(NC(=O)CCN3C(=O)C4CC=CCC4C3=O)cc2)CC1 (stereo not shown),-25.3
9,CCNCc1cc2cc(C)ccc2[nH]c1=O,4.86
10,Cc1ccc(-n2[nH]c(C)c(C=Nc3cc(C)ccn3)c2=O)cc1,-1.12
11,Cc1ccccc1NC(=O)c1ccc(NC(=O)c2ccco2)cc1,4.77
12,CCc1c(C(=O)Nc2ccccc2)c(C)[nH]c(=S)c1C#N,27.5
13,Nc1nonc1-n1nnc(C(=O)N/N=C/c2cccnc2)c1CSc1ccc(Cl)cc1,0.312
14,O=C(NNC(=O)C1CC(c2cccnc2)=NO1)Nc1cccc(F)c1 (stereo not shown),-5.54
15,C=CCn1c(SCC(=O)c2cccs2)nc2sc(CC)cc2c1=O,-4.31
16,CC(C)CNC(=O)c1ccccc1Oc1ccccc1,-2.63
17,CC(C)c1ccc(N(CC(=O)NC2CCCCC2)C(=O)CCC(=O)Nc2ccccn2)cc1,-8.38
18,NS(=O)(=O)c1ccc(NC(=S)N2CCN(C(=O)C3CCCO3)CC2)cc1 (stereo not shown),11.6
19,CSCC[C@H](NC(=O)N1CCn2c1nc1ccccc12)C(=O)NCc1ccc(C)cc1,-13.3
20,Brc1ccsc1/C=N/Nc1ccccc1,20.2
21,CC(=O)N1c2c(cc(Br)cc2S(=O)(=O)Nc2c(C)n(C)n(-c3ccccc3)c2=O)CC1C (stereo not shown),5.64
22,Cc1ccn(CC(=O)N2CCCC(Nc3ccc(F)c(F)c3)C2)n1 (stereo not shown),-0.709

row,SMILES,"hERG current change (%, negative = inhibition) at 10uM [%]"
1,O=C(NCCCN1CCOCC1)C1CCN(S(=O)(=O)c2cccc(Cl)c2Cl)CC1,-17.1
2,Cc1ccccc1S(=O)(=O)Cc1ccc(C(=O)NCCCN2CCCC2)o1,-6.93
3,CCOC(=O)C(Cc1ccc(O)cc1)NC(=O)CNC(=O)C(CC(C)C)NC(=O)OC(C)(C)C (stereo not drawn) (Boc-Leu-Gly-Tyr-OEt; configuration not given here),3
4,CCSc1ccccc1C(=O)NCCCn1ccnc1,10.2
5,CCCN1CCC(NC(=O)C2CCN(C(C)=O)CC2)CC1,12.4
6,CC1CCCC(C)N1C(=O)CNCc1ccc2c(c1)OCO2.O=C(O)C(=O)O (stereo not shown),9.88
7,CC(C)(C)c1ccc(/C=N/N2C(=O)CSC2=S)cc1,16.6
8,N#Cc1c(SCC(=O)N2CCCCC2)nsc1SCC(=O)N1CCCCC1,16.5
9,CC(C)NC(=O)C(=O)NCC(c1ccc2c(c1)OCO2)N1CCOCC1 (stereo not shown),11.8
10,Cc1cc(-c2nnc3n2CCCCC3)c(C)n1-c1ccccc1,-14.5
11,COc1ccc(S(=O)(=O)N2CCCCCC2)cc1NC(=O)Cc1cc(OC)c(OC)c(OC)c1,3.28
12,COC(=O)C1=C(C)NC(=O)/C1=C\c1cc(C)n(-c2ccccc2F)c1C,12.2
13,Cc1ccc(NC2=NCC(=O)N2c2ccc3c(c2)OCCO3)c(C)c1,6.92
14,CCCN(c1ccc(C(C)C)cc1)S(=O)(=O)c1c(C)noc1C,23.4
15,COc1ccc(CCn2c(O)c(C=NCCCn3ccnc3)c(=O)[nH]c2=O)cc1OC,12.8
16,O=C(NCCCN1CCOCC1)c1cc(-c2ccc(F)cc2)no1,-13.2
17,O=C1N(c2cccc(Cl)c2)C(c2ccc(Cl)cc2)N2CCCN12 (stereo not shown),-15.8
18,CSc1ccccc1NC(=O)c1ccoc1C,-16.9
19,COc1ccc(C2C(C#N)=C(N)OC(C(C)(C)C)=C2C#N)cc1OC (stereo not shown),-39.8
20,S=P(Nn1cnnc1)(c1ccccc1)c1ccccc1,12.9
21,C/C(=C\C(=O)c1ccc(C)o1)Nc1ccc2c(c1)OCO2,-0.0129
22,CCOC(=O)Cc1csc(NC(=O)Cn2cnc3c2c(=O)n(C)c(=O)n3C)n1,2.68
